From PubChem BioAssay AID485364 (National Center for Advancing Translational Sciences (NCATS), 2010)
Out of some 360,000 compounds screened, about 11,000 (3.1%) were called active. Inconclusive results, whose numbers are uncertain, are shown with a selection of clear calls. The call rests on the fitted dose curve; in most records, active means well fitted inhibition curve with a large enough effect; inconclusive means small, poorly fitted or top-dose-only effect; inactive means no such curve, though single readings can be large or run the other way. No potency is given beside an inconclusive call; the fits are too rough.
Further: nearly all actives have a fitted effect of over 60% in size.
Potency means the concentration at half of the fitted maximal effect; tags describe the fitted curve by direction and shape.

Each compound was assayed against Schistosoma mansoni thioredoxin glutathione reductase (TGR) (UniProt Q962Y6) (assay: qHTS Assay for the Inhibitors of Schistosoma Mansoni Peroxiredoxins). Conditions: purified TGR, DTNB reduction, TNB absorbance 405 nm; series mostly up to 114 µM.
Summary of the method: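 First, TGR (20 nM dispensed) and NADPH were mixed with compound. Second, a 15 min room-temperature incubation followed. Third, further NADPH and then DTNB were added to start the reaction. Finally, TNB absorbance was monitored kinetically.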
Cc1[nH]n(-c2ccccc2)c(=O)c1N=Nc1ccc(C(N)=O)cc1 was tested, and the Potency was “inactive”. With CCOc1ccccc1NC(=O)CSC1=Nc2ccccc2C2=NC(CC(=O)NCc3ccc4c(c3)OCO4)C(=O)N12 (stereo unspecified) the Potency was “inactive”. In the case of N#CC1=C(N)Oc2c(sc3ccccc23)C1c1ccco1 (stereo unspecified), the Potency was active: 31.6 µM. With CN(Cc1ccccc1)S(=O)(=O)c1ccc2c(c1)n(C)c(=O)c(=O)n2C the Potency was “inactive”. CCOc1cc(C2C3=C(CC(C)(C)CC3=O)N(C)C3=C2C(=O)CC(C)(C)C3)ccc1O was tested, and the Potency was inconclusive [inhibitor, partial curve]. In the case of CCOC(=O)c1c(C)[nH]c(C=Nc2ccccc2)c1O, the Potency was active: 31.6 µM. In the case of COc1cc(OC)c([N+](=O)[O-])cc1/C=N/NC(=O)c1ccncc1, the Potency was inconclusive [inhibitor, partial curve]. With Cc1ccc(S(=O)(=O)NCC(Nc2cccc(Cl)c2)c2ccccc2)cc1 (stereo unspecified) the Potency was inconclusive [inhibitor, single point]. Cc1nc(SCc2ccc(O)c([N+](=O)[O-])c2)c([N+](=O)[O-])[nH]1 was tested, and the Potency was active: 39.8 µM. For Cc1cccc(N2C(=O)CC(SC(N)=Nc3ccccc3)C2=O)c1 (stereo unspecified), the Potency was “inactive”. For COc1cc2c(cc1OC)C(COc1ccc(F)cc1)N(C(=O)Cc1ccccc1)CC2 (stereo unspecified), the Potency was “inactive”. In the case of COc1ccc(C(=O)C(C)(C)NO)cc1, the Potency was “inactive”. For COc1cc(CCC(=O)OCC(=O)Nc2ccc(F)cc2F)cc(OC)c1OC, the Potency was “inactive”. CNS(=O)(=O)c1cnccc1N1CCN(c2cccc(C(F)(F)F)c2)CC1 was tested, and the Potency was “inactive”. For Cc1ccc(-c2nc(CS(=O)(=O)CC(=O)N3CCCCCC3)c(C)o2)cc1, the Potency was inconclusive [inhibitor, partial curve]. Cn1cnc([N+](=O)[O-])c1Oc1ccc2ccccc2c1 was tested, and the Potency was active: 14.1 µM. In the case of CCN(CC)S(=O)(=O)c1ccc(C(=O)NC(=S)N(CCO)Cc2ccccc2)cc1, the Potency was “inactive”. In the case of O=S(=O)(c1ccccc1)c1nc(-c2ccco2)oc1NCc1cccnc1, the Potency was active: 25.1 µM. With COc1ccc(OC)c([N+](=O)[O-])c1C(N)=O the Potency was active: 79.4 µM. In the case of CC(C)(C)NC(=O)CSc1nc(O)cc(=O)[nH]1, the Potency was “inactive”. COc1cc(C=C(C(C)=O)C(C)=O)ccc1O was tested, and the Potency was inconclusive [inhibitor, partial curve]. In the case of O=C(NCc1ccccc1)C1=C[C@@H](c2ccc(Br)cc2)C[C@@H](OCc2ccc(CO)cc2)O1, the Potency was inconclusive [inhibitor, partial curve]. In the case of O=C1NC(=O)N(CCc2ccc(F)cc2)C(=O)/C1=C\C=C\c1ccccc1, the Potency was inconclusive [inhibitor, partial curve]. For Cc1cc(Br)ccc1SCC(=O)NNC(=O)c1ccco1, the Potency was inconclusive [inhibitor, partial curve]. For CCCCN(Cc1cc2cc(OC)ccc2[nH]c1=O)C(=O)c1ccco1, the Potency was active: 44.7 µM. With COc1ccccc1C(=O)NC(=S)Nc1ccccc1N1CCCC1 the Potency was inconclusive [inhibitor, partial curve, poor fit]. COc1cc(-c2nc3oc4ccccc4c(=O)c3c(=O)n2Cc2ccco2)cc(OC)c1OC was tested, and the Potency was inconclusive [inhibitor, partial curve]. With CCC(CC)C(=O)Nc1cccc(C(=O)Nc2ccc(S(N)(=O)=O)cc2)c1 the Potency was inconclusive [inhibitor, single point]. For Cc1ccc(S(=O)(=O)N2CCSC2c2ccco2)cc1 (stereo unspecified), the Potency was active: 44.7 µM. With CCc1nn(CC(=O)NC(C)CC)c(=O)c2cc3occc3n12 (stereo unspecified) the Potency was “inactive”. CC1=Nc2cc([N+](=O)[O-])ccc2NC(C)(C)C1 was tested, and the Potency was inconclusive [inhibitor, partial curve]. With O=C(Nc1ccc([N+](=O)[O-])cc1)N1CCN(C(=O)C2CCCO2)CC1 (stereo unspecified) the Potency was “inactive”. In the case of O=C1OCC2OC(O)C(O)C(O)C2OC(=O)c2cc(O)c(O)c(O)c2-c2c(O)c(O)c3oc(=O)c4c(c(O)c(O)c5oc(=O)c2c3c54)-c2c1cc(O)c(O)c2O (stereo unspecified), the Potency was active: 15.8 µM. With Cc1c(CN2CCC(Oc3ccc(C(=O)N4CCCCC4)cc3)CC2)cnn1C the Potency was “inactive”. For S=c1[nH]c(-c2ccccc2)cn1/N=C/c1ccccc1Br, the Potency was “inactive”. For Cc1ccc(NC(=O)CCS(=O)(=O)c2ccc3c(c2)oc(=O)n3C)c(Br)c1, the Potency was active: 31.6 µM. For COc1ccccc1OCC(=O)NC1CCCCCC1, the Potency was inconclusive [inhibitor, partial curve]. CSc1ccc(CCNC(=O)c2c(C)oc3ncn(C)c(=O)c23)cc1 was tested, and the Potency was “inactive”. For O=C(CN1C(=O)NC2(CCCCC2)C1=O)Nc1cc(C(F)(F)F)ccc1N1CCCCC1, the Potency was “inactive”. Cc1ccc2c(c1)nnn2C1CCN(S(=O)(=O)c2ccc(C(=O)N3C(C)CCCC3C)cc2)CC1 (stereo unspecified) was tested, and the Potency was “inactive”. For N#Cc1c(NC(=O)c2ccc([N+](=O)[O-])o2)sc2c1CCC2, the Potency was active: 35.5 µM. For CCC(CC)C(=O)Nc1nnc(S(=O)(=O)N2CCCc3ccccc32)s1, the Potency was “inactive”. With CCC1(c2ccc(F)cc2)NC(=O)N(CC(=O)c2ccc[nH]2)C1=O (stereo unspecified) the Potency was inconclusive [inhibitor, partial curve]. With COc1ccc(OC)c(S(=O)(=O)N/N=C(/C)c2c[nH]c3ccccc23)c1 the Potency was inconclusive [inhibitor, partial curve]. In the case of CCC1(c2ccc(F)cc2)NC(=O)N(CC(=O)Nc2ccccc2Cl)C1=O (stereo unspecified), the Potency was “inactive”. For O=C1NC(=O)N(c2ccccc2)C(=O)/C1=C\C=C\c1ccccc1, the Potency was active: 14.1 µM. CC(C)(C)c1ccc(S(=O)(=O)N2CCC(CO)(CC3CCCCO3)CC2)cc1 (stereo unspecified) was tested, and the Potency was “inactive”. With CCOC(=O)N1CCN(C(=O)CCc2cc(OC)c(OC)c(OC)c2)CC1 the Potency was inconclusive [inhibitor, partial curve, poor fit]. O=C(CNC(=O)c1ccccc1F)OCn1nnc2ccccc2c1=O was tested, and the Potency was inconclusive [inhibitor, partial curve]. COc1cccc(N2CCN(c3ncnc4c3c(-c3ccccc3)cn4-c3ccc(F)cc3)CC2)c1 was tested, and the Potency was “inactive”. O=C(N/N=C1\CCCc2ccccc21)c1cccc(Br)c1 was tested, and the Potency was “inactive”. Cc1ccnc(NC(=O)CSc2nnc3c(n2)[nH]c2ccccc23)c1 was tested, and the Potency was inconclusive [inhibitor, single point]. With CC(=O)c1cccc(NC(=O)Nc2cc3sccc3n2C)c1 the Potency was inconclusive [inhibitor, partial curve]. With CC1(C)c2ccccc2N2CCC(=O)NC21/C=C/c1ccco1 (stereo unspecified) the Potency was active: 25.1 µM. In the case of c1ccc(N2CCN(c3ncccn3)CC2)cc1, the Potency was “inactive”. With COc1ccccc1Oc1ccc2c(c1)C(=O)N(c1cccc(O)c1)C2=O the Potency was “inactive”. With Cc1cc(-c2ccccc2)nc2c(Br)c(=O)[nH]n12 the Potency was active: 44.7 µM. In the case of O=C(CCS(=O)(=O)c1ccccc1)Nc1nnc(-c2ccco2)o1, the Potency was inconclusive [inhibitor, full curve, poor fit]. With COc1cccc(C(=O)/C=C/Nc2ccc(S(=O)(=O)Nc3ccc(C(C)=O)cc3)cc2)c1 the Potency was inconclusive [inhibitor, single point]. For O=C(Nc1ccccc1F)c1ccc(COc2ccc(Cl)cc2Cl)o1, the Potency was inconclusive [inhibitor, partial curve]. C#CCOCCOCCOCCNc1nc(N2CCN(C(=O)[C@H](CCC(=O)O)n3cc(C(N)Cc4ccc(O)cc4)nn3)CC2)nc(N2CCN(C(=O)[C@H](CCC(=O)O)n3cc(C(N)[C@H](C)CC)nn3)CC2)n1 (stereo partly specified) was tested, and the Potency was inconclusive [inhibitor, partial curve]. In the case of CC(C)OP(=O)(OC(C)C)C1(NS(=O)(=O)c2ccc(Cl)cc2)C=C(Cl)C(=O)C(Cl)=C1, the Potency was active: 0.794 µM. In the case of O=C(Cn1ccsc1=NC(=O)c1ccco1)c1ccccc1, the Potency was inconclusive [inhibitor, full curve, poor fit]. With COc1ccc(N/N=C/c2c(O)n(-c3cccc(C)c3)c(=O)[nH]c2=O)cc1 the Potency was inconclusive [inhibitor, partial curve]. CCOc1ccccc1CN1CCN(C2CCN(c3ccccc3F)CC2)CC1CCO (stereo unspecified) was tested, and the Potency was inconclusive [inhibitor, partial curve]. In the case of O=C(Cn1nc(-c2ccc(Cl)cc2)ccc1=O)NCCc1ccccc1, the Potency was “inactive”. In the case of N#CCOc1coc(CN2CCN(c3ccccc3)CC2)cc1=O, the Potency was “inactive”. O=C(CSc1ccc([N+](=O)[O-])cc1)NNC(=O)c1ccccc1F was tested, and the Potency was inconclusive [inhibitor, partial curve]. In the case of COC(=O)C1=CN(Cc2cccs2)C=C(C(=O)OC)C1c1cccc(O)c1, the Potency was “inactive”. CC(=O)OC1N=C(c2ccccc2)c2cc(C)ccc2NC1=O (stereo unspecified) was tested, and the Potency was inconclusive [inhibitor, full curve, poor fit]. In the case of NC(=O)C1CCCNC1 (stereo unspecified), the Potency was active: 28.2 µM. In the case of O=C(/C=C/c1cc(Br)ccc1O)c1ccco1, the Potency was active: 14.1 µM. With CSc1ccc(C(=O)C2CCCN(Cc3cccn3-c3cccnc3)C2)cc1 (stereo unspecified) the Potency was inconclusive [inhibitor, partial curve]. O=C1CC(c2ccco2)Cc2nc(NCC3CCCO3)ncc21 (stereo unspecified) was tested, and the Potency was inconclusive [inhibitor, partial curve]. In the case of CC(C)(C)c1nc(CN2CCCCC2)cc(CN2CCCCC2)c1O, the Potency was inconclusive [inhibitor, single point]. In the case of COc1ccc(N2C(=O)C3C(C2=O)C(C(=O)c2ccccc2)N2CCCC32)cc1 (stereo unspecified), the Potency was active: 22.4 µM.
